{
  "source": "the RNAGym collection of RNA variant scans (doi:10.1073/pnas.2313332121)",
  "parents": {"B1": {"name": "TPR 5TU (parent)", "chain": "GGAUCUUCUCGAUCUAACAAAAAAGACAAAUCUGCCACAAAGCUUGAGAGCAUCUUCGGAUGCAGAGGCGGCAGCCUUCGGUGGCGCGAUAGCGCCAACGUUCUCAACUAUGACACGCAAAACGCGUGCUCCGUUGAAUGGAGUUUAUCAUG"}},
  "note": "This sample is rich in variants without activity.",
  "data": [
    {"variants_of": "B1", "test": "polymerase ribozyme fitness, log enrichment relative to wild type (log ratio); higher = more active; in vitro selection for triplet polymerase activity", "how_it_was_run": "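After PCR construction and transcription, each subunit's mutant library from a heterodimeric triplet polymerase ribozyme was annealed with a biotinylated primer, the partner subunit and triplets. Incubation was frozen, at −7 °C, and extended constructs were gel-excised, bound to streptavidin beads and amplified by RT-PCR, in one selection round done in triplicate. Fitness is the logarithm of a genotype's enrichment divided by that of the wild type, from inverse-variance-weighted replicate averages of Illumina-sequenced inputs and outputs. The base of the logarithm is 2, and genotypes needed ≥10 input reads and ≥1 read per output.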", "values": [
      {"variant": "C57G G81U C85G C96U U134A", "polymerase ribozyme fitness (log ratio)": -4.03},
      {"variant": "U56G G58A G83C G86U", "polymerase ribozyme fitness (log ratio)": "≤ -4.2"},
      {"variant": "C57U G67C C95A A97G U151A", "polymerase ribozyme fitness (log ratio)": "≤ -4.2"},
      {"variant": "U56G C79A C87U C93A U135A", "polymerase ribozyme fitness (log ratio)": "≤ -4.2"},
      {"variant": "C57U G94A", "polymerase ribozyme fitness (log ratio)": -0.629},
      {"variant": "C57G U146A", "polymerase ribozyme fitness (log ratio)": -0.273},
      {"variant": "C57U C96U C103U G117U G136A G141U", "polymerase ribozyme fitness (log ratio)": "≤ -4.2"},
      {"variant": "C57U U127C", "polymerase ribozyme fitness (log ratio)": -2.13},
      {"variant": "C57G A73G C116U", "polymerase ribozyme fitness (log ratio)": -0.324},
      {"variant": "C57G C96U A121C A138C U144A", "polymerase ribozyme fitness (log ratio)": "≤ -4.2"},
      {"variant": "C57U C96U", "polymerase ribozyme fitness (log ratio)": -0.201},
      {"variant": "U56C G94C", "polymerase ribozyme fitness (log ratio)": 0.00198},
      {"variant": "C57A A91C", "polymerase ribozyme fitness (log ratio)": "≤ -4.2"},
      {"variant": "C57U C87A A97C C99G C103U", "polymerase ribozyme fitness (log ratio)": "≤ -4.2"},
      {"variant": "C57G G88C U102G G143A", "polymerase ribozyme fitness (log ratio)": "≤ -4.2"},
      {"variant": "C57A C93A A107C C125A U146G", "polymerase ribozyme fitness (log ratio)": "≤ -4.2"},
      {"variant": "C57A G68C C85A U134A U146C", "polymerase ribozyme fitness (log ratio)": "≤ -4.2"},
      {"variant": "C57G G80C G84A G94U U135G", "polymerase ribozyme fitness (log ratio)": "≤ -4.2"},
      {"variant": "U56A G62A G92A G124C", "polymerase ribozyme fitness (log ratio)": "≤ -4.2"},
      {"variant": "C57G G65A G80A A89G G94C C99G G143U", "polymerase ribozyme fitness (log ratio)": "≤ -4.2"},
      {"variant": "C57A C85G G88A G140C G141U", "polymerase ribozyme fitness (log ratio)": "≤ -4.2"},
      {"variant": "C57U C75A C85G A106U G112C U127C C131G G141A", "polymerase ribozyme fitness (log ratio)": "≤ -4.2"},
      {"variant": "C57A G59U U77A C99G", "polymerase ribozyme fitness (log ratio)": "≤ -4.2"},
      {"variant": "U56G G81U A91G", "polymerase ribozyme fitness (log ratio)": -3.38},
      {"variant": "U56G C69U A73U U134C G141U U146A", "polymerase ribozyme fitness (log ratio)": -2.72},
      {"variant": "C57G U61A G70C C95U A107C U134A", "polymerase ribozyme fitness (log ratio)": "≤ -4.2"},
      {"variant": "C57G A121U U135C", "polymerase ribozyme fitness (log ratio)": -2.26},
      {"variant": "U56A G58U C63A A115U C118U", "polymerase ribozyme fitness (log ratio)": -1.35},
      {"variant": "C57G A73U G83C G133U G143C U145C", "polymerase ribozyme fitness (log ratio)": "≤ -4.2"},
      {"variant": "U56A G86A C96U U111A G136U A147U", "polymerase ribozyme fitness (log ratio)": "≤ -4.2"},
      {"variant": "U56A G59C G68A A91G C93U A106C", "polymerase ribozyme fitness (log ratio)": "≤ -4.2"},
      {"variant": "U56C C85G U135C A142U G152A", "polymerase ribozyme fitness (log ratio)": "≤ -4.2"},
      {"variant": "C57A C72G U146A", "polymerase ribozyme fitness (log ratio)": "≤ -4.2"},
      {"variant": "C57A C87G", "polymerase ribozyme fitness (log ratio)": -3.18},
      {"variant": "U56A U90C U144G", "polymerase ribozyme fitness (log ratio)": -3.91},
      {"variant": "U56G C79A G80C C118U", "polymerase ribozyme fitness (log ratio)": "≤ -4.2"},
      {"variant": "C57G U90G C103A A106C A113G", "polymerase ribozyme fitness (log ratio)": "≤ -4.2"},
      {"variant": "C57U G59A A60C C75A C93U", "polymerase ribozyme fitness (log ratio)": "≤ -4.2"},
      {"variant": "C57U G92A U134A A138U", "polymerase ribozyme fitness (log ratio)": "≤ -4.2"},
      {"variant": "C57U G92A U104C U135C", "polymerase ribozyme fitness (log ratio)": "≤ -4.2"},
      {"variant": "C57G G65C G84A U139A G140U", "polymerase ribozyme fitness (log ratio)": "≤ -4.2"},
      {"variant": "C57A C72G U77A C87A U127A G136A", "polymerase ribozyme fitness (log ratio)": "≤ -4.2"},
      {"variant": "C57U A64C C96U", "polymerase ribozyme fitness (log ratio)": "≤ -4.2"},
      {"variant": "U56A G68U G83C G117A A119U G140A", "polymerase ribozyme fitness (log ratio)": "≤ -4.2"},
      {"variant": "U56A G67C C93U C103A U130A U148C", "polymerase ribozyme fitness (log ratio)": "≤ -4.2"},
      {"variant": "C57A G74U G94A C99A A110C C118A", "polymerase ribozyme fitness (log ratio)": "≤ -4.2"},
      {"variant": "U56G C69A C76G C85G A122U", "polymerase ribozyme fitness (log ratio)": "≤ -4.2"},
      {"variant": "U56A G141A", "polymerase ribozyme fitness (log ratio)": 0.775},
      {"variant": "U56A U61G G65A C85A G86A A121U U127A", "polymerase ribozyme fitness (log ratio)": "≤ -4.2"},
      {"variant": "C57U C69A G84U A121C", "polymerase ribozyme fitness (log ratio)": -2.25},
      {"variant": "C57G A66G G68U G88C A113C", "polymerase ribozyme fitness (log ratio)": "≤ -4.2"},
      {"variant": "C57G G68U", "polymerase ribozyme fitness (log ratio)": "≤ -4.2"},
      {"variant": "U56A G86C G124C U148A", "polymerase ribozyme fitness (log ratio)": "≤ -4.2"},
      {"variant": "C57G C103G", "polymerase ribozyme fitness (log ratio)": -2.16},
      {"variant": "C57U A91U U102G G152U", "polymerase ribozyme fitness (log ratio)": -3.9},
      {"variant": "C57A C63U G65C C95U C125U U151C", "polymerase ribozyme fitness (log ratio)": "≤ -4.2"},
      {"variant": "C57U C79G", "polymerase ribozyme fitness (log ratio)": -3.67},
      {"variant": "C57U C79A", "polymerase ribozyme fitness (log ratio)": -4.19},
      {"variant": "U56A G68U C85U U102G A113C G141A", "polymerase ribozyme fitness (log ratio)": "≤ -4.2"},
      {"variant": "C57A G65A", "polymerase ribozyme fitness (log ratio)": -0.56},
      {"variant": "C57G U77C G84A U134A", "polymerase ribozyme fitness (log ratio)": "≤ -4.2"},
      {"variant": "C57A G94A", "polymerase ribozyme fitness (log ratio)": -0.487},
      {"variant": "U56G A64G C72U C129A G140A", "polymerase ribozyme fitness (log ratio)": "≤ -4.2"},
      {"variant": "U56A G71A U82C A91C C108U G143C", "polymerase ribozyme fitness (log ratio)": "≤ -4.2"},
      {"variant": "C57A G62C C76U A91U C108U G140U U144G C149G", "polymerase ribozyme fitness (log ratio)": "≤ -4.2"},
      {"variant": "C57U U78G U82G G88C U134G", "polymerase ribozyme fitness (log ratio)": "≤ -4.2"},
      {"variant": "U56A U90C G92U C103G", "polymerase ribozyme fitness (log ratio)": "≤ -4.2"},
      {"variant": "U56A G62U G74C G83A G152U", "polymerase ribozyme fitness (log ratio)": "≤ -4.2"},
      {"variant": "C57G C93U A115U", "polymerase ribozyme fitness (log ratio)": -3.44},
      {"variant": "C57U C96G C108G U144G", "polymerase ribozyme fitness (log ratio)": "≤ -4.2"},
      {"variant": "U56G C69A C85A C96U G143C", "polymerase ribozyme fitness (log ratio)": "≤ -4.2"},
      {"variant": "U56G C85A", "polymerase ribozyme fitness (log ratio)": -2.05},
      {"variant": "C57A G86A G128A", "polymerase ribozyme fitness (log ratio)": "≤ -4.2"},
      {"variant": "U56G A66G C129A U146G", "polymerase ribozyme fitness (log ratio)": "≤ -4.2"},
      {"variant": "C57A A91G U101A A142G", "polymerase ribozyme fitness (log ratio)": -4.08},
      {"variant": "C57U C131U", "polymerase ribozyme fitness (log ratio)": 1.26},
      {"variant": "C57G G86C A89C C116U A122C", "polymerase ribozyme fitness (log ratio)": "≤ -4.2"},
      {"variant": "C57A A60C U61A G88A U148G", "polymerase ribozyme fitness (log ratio)": "≤ -4.2"},
      {"variant": "U56C C87U", "polymerase ribozyme fitness (log ratio)": -1.06},
      {"variant": "C57U C95A G112U U151A", "polymerase ribozyme fitness (log ratio)": -4.06},
      {"variant": "U56G G84C C116U", "polymerase ribozyme fitness (log ratio)": -4.17},
      {"variant": "C57G A64C C85G", "polymerase ribozyme fitness (log ratio)": "≤ -4.2"},
      {"variant": "C57A C85G C105A U135A U151A", "polymerase ribozyme fitness (log ratio)": "≤ -4.2"}
    ]}
  ]
}
